The results in this text go back to the RNAGym collection of RNA variant scans (doi:10.7554/elife.90254).

Read counts are not given, so values of variants with three or more changes are uncertain.

The chains are these.
B1: LINE1-mini (parent)
chain: GGCAGAGCUCAACACAGCGUGGCAAAGUGGCUGUGGCUAGACUGCC

This data set covers variants of B1. Nature of the data set: self-cleavage, relative activity (ratio to wild type); higher = more cleavage; in vitro, sequencing; the parent is a self-cleaving ribozyme.
On to GGCAGGGUUCAACACAGCGUGGCAAACUGGCUGUGGGUAUACUGCC [A6G C8U G27C C37G G40U], for which the self-cleavage worked out at 0.02.
As for GGCAGGGUUCAACACAGCGUGGCAAAGUGGCUUUCGUUAGACUGCC [A6G C8U G33U G35C C37U], the self-cleavage was 0.03.
For the variant GGCAGGUCUCAACACAGCGUCCAAAAGUGGCUGUGGCUAGACUGCC [A6G G7U G21C G22C C23A], the self-cleavage amounted to 0.03.
The figure for GGCAGGGCUCAAAACAACGUGGGAAAGUGGUUGUGGCUAGAAUGCC [A6G C13A G17A C23G C31U C42A] is 0.02.
Consider GGCAGGGCUCAACAUAGCGUGACACAGUGGCUGUUGCUAGACUGCC [A6G C15U G22A A25C G35U], for which the self-cleavage is 0.03.
The figure for GGCAGGGUUCAACACAGCGUGGCAAAGUGGCUGUGCCUAGACUGCA [A6G C8U G36C C46A] is 0.67.
Then GGCAGGGCUCAACACAGCGUAGCAAAGUGGCUGUGGCUAGGCUGCC [A6G G21A A41G], with 0.22.
With GGCAGGGCUCAACACAGCGUGGUAAAGUGGCUGUACCUAUACUUCC [A6G C23U G35A G36C G40U G44U], the self-cleavage worked out at 0.03.
For the variant GGCAGGGCUCAACAUAACGUGGCAUAGUGGCUGUGGCUAGACUGCC [A6G C15U G17A A25U], the self-cleavage stood at 0.19.
As for GGCAGGGCUCAACACAGCGUGACAAAGUGACUAUGGCUAGACUGCC [A6G G22A G30A G33A], the self-cleavage was 0.04.
Then GGCAGGGCUCAACACAGUAUGGCAAAGUGGCUGUGGCUAGACUGCC [A6G C18U G19A], with 0.39; and GGCAGGGCUCAACACACCGUGGCAAAGUGGCUGAGGCUAGACUGCC [A6G G17C U34A], with 0.04.
GGCAGGGCUCAACACAGCGUGGCAAAGUGGCUAUGGCUAGUCUUCC [A6G G33A A41U G44U]: the self-cleavage was 0.26.
The figure for GGCAGGGCUCAACACAGUGUGGCAACGUGGCUGUGUCUAGACUGCC [A6G C18U A26C G36U] is 0.28; for GGCAGGGCUCAACACAGCGUGCCAAAGUGACUGUGUAUAGACUGCC [A6G G22C G30A G36U C37A] it is 0.03.
For GGCAGGGCUCAACACAGUGUGGCUAAGUGGCUGUGGCUAGACUGCC [A6G C18U A24U], the self-cleavage was 0.06.
Then GGCAGGGCUCAACACAGAGUGGCAAAGUGGCUGUAGCUAGACUGCC [A6G C18A G35A], with 0.04; and GGCAGGGCUAAACAUAGCGUGGCAAAGUGGCUGUGGCUAGACUGAC [A6G C10A C15U C45A], with 0.02; and GGCAGGGCUCAACACAGCGUGGCAAAAUGUCUGUGGCUAGAUUUCC [A6G G27A G30U C42U G44U], with 0.75.
For the variant GGCAGGGCUCAACAAAGCGGGGCAUAGUGGCCGUGGCUAGACUGCC [A6G C15A U20G A25U U32C], the self-cleavage turned out to be 0.05.
As to GGCAGGGCUCAACACAGCAUGGAAAAGUGACUGUGGCUAGACUGCC [A6G G19A C23A G30A], the self-cleavage came out at 0.04.
As for GGCAGGGCUCAACAGAGCAUGGCAAAGUGCCUGUGGCUAGACUCCC [A6G C15G G19A G30C G44C], the self-cleavage came out at 0.01.
The figure for GGCAGGGCUCAACACAGCGUGGUAAAGUGGCUGUGGCUAGACUGUC [A6G C23U C45U] is 0.14; for GGCAGGGCUCAACACAGCCUGGUAAAGUGGCUUUGGCUAGACUGCC [A6G G19C C23U G33U] it is 0.06.
Then GGCAGGGCUCAACACAGCGUGGCAAAGUGGCUUUGGCUAGAAUGCC [A6G G33U C42A], with 0.07; and GGCAGGGCUCAACACAGCGUGGCAAAGUGGCUGUGGUUAGACUUCC [A6G C37U G44U], with 0.11; and GGCAGGGCUCAACACAGCGUGGCAAAGUGUAUGUAGCUAGACUGCC [A6G G30U C31A G35A], with 0.01.
On to GGCAGGGUUCAACACAGCGUGACAAAGUGGCUGUGGCUAAAUUGCC [A6G C8U G22A G40A C42U], for which the self-cleavage was 0.02.
On to GGCAGGGCUCAACACAGAGUGGCAAAGGGGCUGUGGCCUGACUGCC [A6G C18A U28G U38C A39U], for which the self-cleavage came to 0.09.
Consider GGCAGGGCUCAACACACCGUGGCAAAGUGUCUUUGGCUAAACAGCC [A6G G17C G30U G33U G40A U43A], for which the self-cleavage stood at 0.13.
As for GGCAGGACUCAACACAGCGUUGCAACGUGGCUGUCGCUAGACUGCC [A6G G7A G21U A26C G35C], the self-cleavage stood at 0.1.
The figure for GGCAGGGCUCAAAACACCCUGGCAAAGUGGCUGUGGCUAGACUGCC [A6G C13A G17C G19C] is 0.03; for GGCAGGGCUCAACACAGCUUGGCAAAGUGGCUGUGGCUAGACCGCC [A6G G19U U43C] it is 0.04.
Then GGCAGGUCUCAACACAGCGUGGCACAGUGGCUGUGGCUAGACUGUC [A6G G7U A25C C45U], with 0.06.
Then GGCAGGGCUCAACACAGCGUGACAAAGUGGCGGUGGCAAGACUGCC [A6G G22A U32G U38A], with 0; and GGCAGGGCUCAACACAACGAGGCAAAGUGGCUGUGGCUACACUGCC [A6G G17A U20A G40C], with 0.03.
On to GGCAGGACUCAACACAGCGUGGCAAAGUGGCUGUGGCUAGACUGAC [A6G G7A C45A], for which the self-cleavage was 0.62.
Consider GGCAGGGCUCAAAACACCUUGGCUAAGUGGCUGUGGCUAGACUGCC [A6G C13A G17C G19U A24U], for which the self-cleavage was 0.16.
Take GGCAGGGCUCAACACAGGGUGGCAAAGUGGUUGUGGCUAGCCUGCC [A6G C18G C31U A41C]: the self-cleavage was 0.
On to GGCAGGGCUCAACACAGCGUGGCAAAGUGGCUAUGGCUAGUCUGCC [A6G G33A A41U], for which the self-cleavage worked out at 0.03.
Then GGCAGGGCUCAACACAGCAUGGUAAAUUGUCUGUGGCUAGACUGCC [A6G G19A C23U G27U G30U], with 0.06; and GGCAGGGCUCAACACAGCGUGGCAAAGUGGCUGUGGUUAGACGGCC [A6G C37U U43G], with 0.01; and GGCAGGGCUCAACACAACGAGGCAAAGUGGCUCUGGCUAGACUGCC [A6G G17A U20A G33C], with 0.03.
Take GGCAGGGCUCAACACAGCGUGCCAAUGUGGCUAUGGCUAGACUUCG [A6G G22C A26U G33A G44U C46G]: the self-cleavage came to 0.06.
For GGCAGGGCUCAAAACAGCGUGGCAAAGUGGAUGUGGCUAGACUGUC [A6G C13A C31A C45U], the self-cleavage worked out at 0.04.
The figure for GGCAGGGCUCAACACAGCGUGGCAAAGUGGCUGUGGCUAGAUUGCA [A6G C42U C46A] is 0.02.
The figure for GGCAGGGCUGUACACUGCAUCGAAAAGUUGCUGUGGCUGGACUGCC [A6G C10G A11U A16U G19A G21C C23A G29U A39G] is 0; for GGCAGGGCUCAACACACCGUGGCAAAGUGGCUGUGGCCAGACUGCA [A6G G17C U38C C46A] it is 0.
Turning to GGCAGGGCUAAACACAGCGUGGCAAAGUCGCUGUGGCUAGACUGCC [A6G C10A G29C], the self-cleavage was determined as 0.05.
Consider GGCAGGGCUGAACACAGCGUGGCAUAGUGGCUGUGGCUAGAAUGCC [A6G C10G A25U C42A], for which the self-cleavage was 0.
For the variant GGCAGGCCUCAACACAGCGUGGCAAAGUGUCUGUGGCUAGGCUGCC [A6G G7C G30U A41G], the self-cleavage is 0.01.
The figure for GGCAGGCCUCAACUCAGCGCGGCAAAGUGGCUGUGGAUAAACUGCC [A6G G7C A14U U20C C37A G40A] is 0.06; for GGCAGGGCUCAAUACAGCGUGGCAAAGUGUCUGUGGCUAGACUGCC [A6G C13U G30U] it is 0.05.
In the case of GGCAGGGCUAAACACAGCGUGGCAAAGUGGCUGUGGCUACACUGCC [A6G C10A G40C], the self-cleavage was found to be 0.02.
On to GGCAGGGCUCAACACAGCGUGGCAAAGUGAUUGUGGCUAGACUGCC [A6G G30A C31U], for which the self-cleavage is 0.03.
Turning to GGCAGGGCUCAACACAGCGUGGCAAAGUGGCUGUGGGGAGAAUGCC [A6G C37G U38G C42A], the self-cleavage stood at 0.01.
